Inconclusive results and toxic doses are left out. For part of its entries the source gives two or more results. The other results are left out here. An entry can have further records. The records of an entry do not match, cause unknown; some may be repeats, others may stem from another dose, organism or construct than stated. Signs of the kind (2×) count equal records among those shown.
Test system: AKR/Lw mice, AKR lymphoma ip, median survival T/C
Assay: NCI In Vivo Anticancer Drug Screen. Data for tumor model Lymphoma AKR (Transplanted) (intraperitoneal) in AKR/Lw mice
Settings: endpoint: median survival time, higher = longer survival
Protocol: The antitumor activity of compounds was measured in mice bearing transplantable tumors. Survival or tumor size were measured and the results are expressed as the measurement made in the treated group (T) divided by the measurement made in the vehicle treated control group (C). The tumor model used in this assay is Lymphoma AKR (Transplanted) (intraperitoneal) in AKR/Lw mice

## O=c1[nH]cc(F)c(=O)[nH]1
dose: 30.0 mg/kg/injection, schedule: Q01DX001 (ip), vehicle: saline
  T/C: 102 % of control, 111 % of control, 158 % of control
dose: 40.0 mg/kg/injection, schedule: Q04DX003 (ip), vehicle: saline
  T/C: 97 % of control and 169 % of control (2×)
dose: 120.0 mg/kg/injection, schedule: Q01DX001 (ip), vehicle: saline
  T/C: 111 % of control, 160 % of control, 164 % of control

## CCCCCCCCCCCCCCCC(=O)OCC1OC(n2ccc(N)nc2=O)C(O)C1O (configuration not stated)
dose: 37.5 mg/kg/injection, schedule: Q01DX001 (ip), vehicle: saline with Tween-80
  T/C: 106 % of control and 158 % of control

## CC1CCC(NC(=O)N(CCCl)N=O)CC1 (configuration not stated)
dose: 24.0 mg/kg/injection, schedule: Q01DX001 (ip), vehicle: saline
  T/C: 115 % of control and 150 % of control

## CN(C)/N=N/c1nc[nH]c1C(N)=O
dose: 400.0 mg/kg/injection, schedule: Q01DX001 (ip), vehicle: saline
  T/C: 118 % of control, 121 % of control, 172 % of control

## Cc1c2ccncc2c(C)c2c1[nH]c1ccccc12
dose: 12.5 mg/kg/injection, schedule: Q01DX009 (ip), vehicle: saline
  T/C: 117 % of control and 151 % of control

Reference: PubChem BioAssay AID190 (DTP/NCI, 2004)
